# Experimental data: the supplement of paper PMC3334620
# Whole data set: some 33,000 sequences, median “E-score (-0.5 to 0.5)” near -0.021, cut for the highest 2% near 0.32. The list shows a part of the results.
# Target: T1, Zap1 (UniProt P47043)
# T1 sequence: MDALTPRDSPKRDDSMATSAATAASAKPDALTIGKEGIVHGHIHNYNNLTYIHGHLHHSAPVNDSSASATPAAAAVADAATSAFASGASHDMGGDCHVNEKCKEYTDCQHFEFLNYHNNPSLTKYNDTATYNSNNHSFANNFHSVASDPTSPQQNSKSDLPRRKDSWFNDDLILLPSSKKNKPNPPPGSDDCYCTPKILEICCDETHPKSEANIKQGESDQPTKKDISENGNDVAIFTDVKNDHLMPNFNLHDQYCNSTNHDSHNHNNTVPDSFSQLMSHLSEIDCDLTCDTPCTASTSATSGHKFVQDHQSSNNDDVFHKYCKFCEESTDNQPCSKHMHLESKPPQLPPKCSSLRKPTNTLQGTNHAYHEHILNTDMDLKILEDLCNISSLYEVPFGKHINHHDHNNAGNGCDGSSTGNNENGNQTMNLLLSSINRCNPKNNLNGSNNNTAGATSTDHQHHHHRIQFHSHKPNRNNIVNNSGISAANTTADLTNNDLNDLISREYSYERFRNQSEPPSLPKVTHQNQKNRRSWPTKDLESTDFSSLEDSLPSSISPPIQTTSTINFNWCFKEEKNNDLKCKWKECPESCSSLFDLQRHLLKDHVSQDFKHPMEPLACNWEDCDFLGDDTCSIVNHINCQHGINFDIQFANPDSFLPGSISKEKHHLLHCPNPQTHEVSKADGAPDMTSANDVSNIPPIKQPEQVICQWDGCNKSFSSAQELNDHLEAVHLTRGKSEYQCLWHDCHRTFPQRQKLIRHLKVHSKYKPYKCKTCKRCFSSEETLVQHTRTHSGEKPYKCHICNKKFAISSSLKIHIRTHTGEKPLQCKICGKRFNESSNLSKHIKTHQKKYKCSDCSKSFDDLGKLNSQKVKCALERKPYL
# Experiment: PBM E-score (8-mer binding enrichment) (E-score (-0.5 to 0.5)); higher = stronger / more preferred TF binding; most listed sequences are background and not binding sites
# Settings: protein concentration: 200 nM; construct: GST-full length
# Method in brief: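 Detection of bound protein used fluorescent anti-GST, with scans normalised by masliner. The proteins were GST-tagged yeast transcription factors applied at about 100-200 nM to universal all-10-mer Agilent arrays made double-stranded by primer extension. Each ungapped eight-base word, pooled with its reverse complement, was scored with an E-score from the Universal PBM Analysis Suite.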
row,Sequence,PBM E-score
1,GCGGCTTA,-0.217
2,CTTATATA,0.27
3,AAATTACA,0.0308
4,CGCACTTC,-0.0939
5,AGTTTCTA,0.00207
6,GCCGAGAA,-0.0434
7,CTTTCAGC,-0.125
8,AGTGCGCC,-0.18
9,TCGATTAA,0.15
10,AACCCCTT,0.38
11,CGGCTATA,-0.115
12,CTCCAAAA,0.0984
13,GACTCGAC,-0.257
14,CTTACCTA,0.123
15,CAAGCACC,-0.129
16,CATGGAGG,0.00108
17,ACCACACG,0.135
18,GCCTGGTA,-0.125
19,CTAGCGCC,-0.284
20,GGTCTAAC,0.145
21,GCTGTTAC,-0.104
22,AAGTGTGC,-0.127
23,CACTACCA,0.22
24,AACCAACT,0.228
25,GTAGAGAC,-0.104

row,Sequence,PBM E-score
1,ACATAACC,0.454
2,ATTTGGTC,0.108
3,ACGCATCC,-0.193
4,CCTTTTGA,0.174
5,CAGCGTGG,-0.204
6,CCGATCTC,-0.214
7,CGGTACAG,0.12
8,CGGTTAAG,0.289
9,AAGGACCT,0.199
10,AGTGAATC,-0.106
11,GCAAGAGC,-0.15
12,GAATCCCC,-0.0776
13,CACATCCG,-0.0128
14,GCCAGTCA,-0.207
15,ACTCAGTC,-0.234
16,CGATGACG,-0.313
17,AGCATAAT,0.0818
18,GCCCTCTA,-0.245
19,CAGTTACA,-0.0085
20,AAAACATG,0.208
21,GCAGGGCA,-0.104
22,ACGCTCAG,0.0359
23,CTCTCGAC,-0.0216
24,GCGATTCA,-0.185
25,AGCTGATC,-0.0986

row,Sequence,PBM E-score
1,AGTAGTAA,0.015
2,CGACGGGA,-0.111
3,AGGGACCG,-0.17
4,AGATATCG,-0.0652
5,CACTGTGA,0.1
6,CTCTTGAA,-0.0501
7,AATTAGAC,0.18
8,ATGACTAG,-0.239
9,ATCCGGCA,-0.276
10,AGGAGCGA,-0.23
11,ATTGGTCA,0.303
12,TACGCAAA,0.0757
13,ATAGAACG,-0.0313
14,ATCATCGA,-0.0628
15,AGTCGAGA,-0.164
16,AAAGGCAG,-0.0969
17,TAGTGGCA,-0.0925
18,CAACGATC,-0.0691
19,TCAACGGA,-0.152
20,GGTCGGCA,0.0289
21,ACATCTTC,-0.098
22,AAGAGGCT,-0.197
23,TCCCTAGA,-0.0192
24,GATCGCGC,0.119
25,CAACCTGA,0.12

row,Sequence,PBM E-score
1,CGTTCATA,-0.0193
2,CATGCCGC,0.0743
3,CACGATAA,0.29
4,GAGTTTGA,0.0522
5,ACCGTTAA,0.256
6,ACGGAAAC,0.00544
7,CATATACG,-0.119
8,ACCTGGCC,0.062
9,CGAGTGCC,-0.335
10,ATTTATCG,0.0424
11,GGAGCTCC,0.0478
12,CCTGGGCG,-0.0228
13,AACAAGGA,0.148
14,GCATACTA,-0.0324
15,CCTACCAG,-0.139
16,CCTAGCTA,-0.0591
17,CAGAAAGA,-0.0713
18,CACATTTA,0.0149
19,CCGGGTCA,0.316
20,TGAAATCA,-0.00722
21,ACCGATGA,0.0223
22,ATACAACC,0.295
23,ACTTGAAA,0.0945
24,CCCATTCA,-0.0794
25,CACGTAGA,-0.0904

row,Sequence,PBM E-score
1,AGGTTGTG,0.349
2,ATGGCCGC,0.0134
3,CGTTTGGC,-0.112
4,GAACCCCA,0.291
5,CGACTAAC,0.19
6,AAAAGCAT,0.109
7,AATTCCGC,-0.0215
8,ATGACCAC,0.289
9,GATTCAAC,-0.034
10,GTGCGGAA,-0.102
11,GGACCATA,0.0827
12,GGGGCTTA,-0.25
13,AGGGACAC,0.253
14,CAGTCTGC,-0.174
15,ACTTTAGA,0.0114
16,ACGATAGC,-0.093
17,AAACACCG,0.15
18,AGCGACGC,-0.162
19,ACTTCACG,-0.208
20,ACGCATTC,-0.126
21,CACAGATA,-0.0532
22,GACAGCGA,-0.275
23,CTTAATTC,0.165
24,GGATCACC,0.101
25,GTACGACA,-0.0101

row,Sequence,PBM E-score
1,GGTTATTA,0.438
2,ATCACCCA,0.208
3,ACCTATTG,0.26
4,GGAATCCC,-0.0713
5,GCGGCTCC,-0.158
6,AGCACCCG,0.125
7,CCGTGGCA,-0.00393
8,ACGAATAT,0.0884
9,CGCTTAGC,-0.239
10,AGGTAAAC,0.139
11,AGCTCTAT,-0.172
12,CGTGCAAG,-0.129
13,CATATCCG,0.033
14,GAATCCAC,-0.00648
15,CAACGTGC,-0.0974
16,CTCCGTCC,-0.268
17,AGCACCAT,-0.0576
18,ATATAGCG,-0.0177
19,AACGGCTC,-0.244
20,AGCTGTCA,-0.0561
21,CGCCTTAG,-0.293
22,CTCCACTC,-0.232
23,CAGAAACC,0.22
24,CGTTCGGA,-0.0861
25,CACAGGGA,-0.163

row,Sequence,PBM E-score
1,AACGCCCA,-0.0372
2,CATTCACC,0.0314
3,CGTGCGTC,-0.0401
4,CAAGGCTG,0.071
5,GGCAGTCA,-0.139
6,CAGGAAAG,-0.21
7,CCTAAAAG,0.0509
8,AACGTACA,0.0402
9,CGGCCGGC,-0.0891
10,GGTAACTA,0.313
11,ACTGTGGC,-0.107
12,ACGCGTGA,0.152
13,GAGGAGCC,-0.212
14,AAAGATGT,-0.0915
15,CCTAGCCC,-0.151
16,CGTTGATC,0.0689
17,CACAGGCA,-0.244
18,AACGGAGA,-0.0507
19,ATATCGCG,0.126
20,GAGTTCGC,-0.134
21,CAATCTAA,-0.0414
22,AGTGTATA,-0.149
